Common to all, as to assay: split reporter; BiFC with YFP^N and YFP^C fusions cotransformed into Arabidopsis protoplasts; confocal microscopy
Experiment [1] addresses T1, PAM68-YFP^N (Arabidopsis thaliana) (UniProt O49668).
T1 sequence: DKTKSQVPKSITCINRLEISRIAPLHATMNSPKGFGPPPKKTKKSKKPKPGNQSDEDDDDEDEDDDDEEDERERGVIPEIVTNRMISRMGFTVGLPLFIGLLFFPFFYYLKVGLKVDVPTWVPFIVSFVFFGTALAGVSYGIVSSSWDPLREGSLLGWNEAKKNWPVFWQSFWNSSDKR

Chains of the proteins cited; added tags and fusions are not shown. Residues count along the entry.
UniProt Q9SYI0, residues 73-1022: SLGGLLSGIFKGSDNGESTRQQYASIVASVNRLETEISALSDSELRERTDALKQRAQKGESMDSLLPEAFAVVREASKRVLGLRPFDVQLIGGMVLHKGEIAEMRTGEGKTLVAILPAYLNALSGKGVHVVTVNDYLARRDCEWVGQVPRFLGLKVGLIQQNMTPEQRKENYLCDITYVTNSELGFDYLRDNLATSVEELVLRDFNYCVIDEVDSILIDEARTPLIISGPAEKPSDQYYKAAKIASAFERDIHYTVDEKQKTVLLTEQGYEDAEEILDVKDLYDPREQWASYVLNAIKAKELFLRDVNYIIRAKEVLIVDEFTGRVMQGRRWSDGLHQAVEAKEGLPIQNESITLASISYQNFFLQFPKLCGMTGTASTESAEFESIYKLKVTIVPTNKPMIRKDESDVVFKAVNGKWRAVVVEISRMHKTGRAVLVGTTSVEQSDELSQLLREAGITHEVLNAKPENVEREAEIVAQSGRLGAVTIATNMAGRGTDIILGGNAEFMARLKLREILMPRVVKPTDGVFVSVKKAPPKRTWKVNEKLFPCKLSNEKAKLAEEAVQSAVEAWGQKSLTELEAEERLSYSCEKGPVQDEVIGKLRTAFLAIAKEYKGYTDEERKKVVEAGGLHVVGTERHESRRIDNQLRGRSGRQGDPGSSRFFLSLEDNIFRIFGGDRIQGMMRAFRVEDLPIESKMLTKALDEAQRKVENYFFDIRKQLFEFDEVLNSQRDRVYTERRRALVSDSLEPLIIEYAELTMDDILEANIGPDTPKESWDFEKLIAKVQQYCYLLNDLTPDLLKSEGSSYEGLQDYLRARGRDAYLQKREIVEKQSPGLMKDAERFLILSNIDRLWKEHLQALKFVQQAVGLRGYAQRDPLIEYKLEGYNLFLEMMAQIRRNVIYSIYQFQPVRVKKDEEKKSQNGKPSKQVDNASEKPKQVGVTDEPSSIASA

Experiment [2] addresses T1, PAM68-YFP^N (Arabidopsis thaliana). This is another data set of the same source.
The target of the next experiment is T2, YCF4-YFP^N (UniProt P56788).
T2 sequence: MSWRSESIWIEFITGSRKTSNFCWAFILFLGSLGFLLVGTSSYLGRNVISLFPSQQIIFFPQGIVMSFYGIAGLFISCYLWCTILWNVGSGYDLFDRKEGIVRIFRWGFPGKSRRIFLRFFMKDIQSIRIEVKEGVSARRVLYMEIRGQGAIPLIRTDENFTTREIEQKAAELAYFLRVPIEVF

Like-named read-outs stand apart in the source and are kept apart here. These are yes or no findings as the source states them, for the method shown. In cells and extracts the contact can be indirect. Some entries that bind do so weakly or less than the wild type. Where a sequence is shown, tags or fusion partners need not be part of it.

As to “SecA1-YFP^C (from UniProt Q9SYI0 73-1022)”, the binding result in experiment [1] was “binds”.

B1: FtsY-YFP^C (protein, UniProt O80842 41-366)
chain: CSAGPSGFFTRLGRLIKEKAKSDVEKVFSGFSKTRENLAVIDELLLFWNLAETDRVLDELEEALLVSDFGPKITVRIVERLREDIMSGKLKSGSEIKDALKESVLEMLAKKNSKTELQLGFRKPAVIMIVGVNGGGKTTSLGKLAHRLKNEGTKVLMAAGDTFRAAASDQLEIWAERTGCEIVVAEGDKAKAATVLSKAVKRGKEEGYDVVLCDTSGRLHTNYSLMEELIACKKAVGKIVSGAPNEILLVLDGNTGLNMLPQAREFNEVVGITGLILTKLDGSARGGCVVSVVEELGIPVKFIGVGEAVEDLQPFDPEAFVNAIFS
B1: the binding entry in experiment [2] is “binds”.

B2: LPA2-YFP^C (protein, UniProt F4KDA6 47-185)
chain: SKNSSSSGVGFGSPASSSSPAKKLSAATSGNKKGKGKREVNRRAPVEKPVFMSEEGAAKAEEQRQNENAFLLTWLGLGIVILIEGIILAASGFLPEELDKLFVKYVYPVFTPSVVLFVAGTTAYGVLKYIQNEKMKGQE
For B2, the binding entry in experiment [2] is listed as “binds”.

B3: PAM68-YFP^C (protein, UniProt O49668 36-214)
chain: T1 sequence
In the case of B3, the binding result in the experiment with YCF4-YFP^N was “no binding”.

B4: cpSRP54-YFP^C (protein, UniProt P37107 76-564)
chain: EMFGQLTGGLEAAWSKLKGEEVLTKDNIAEPMRDIRRALLEADVSLPVVRRFVQSVSDQAVGMGVIRGVKPDQQLVKIVHDELVKLMGGEVSELQFAKSGPTVILLAGLQGVGKTTVCAKLACYLKKQGKSCMLIAGDVYRPAAIDQLVILGEQVGVPVYTAGTDVKPADIAKQGLKEAKKNNVDVVIMDTAGRLQIDKGMMDELKDVKKFLNPTEVLLVVDAMTGQEAAALVTTFNVEIGITGAILTKLDGDSRGGAALSVKEVSGKPIKLVGRGERMEDLEPFYPDRMAGRILGMGDVLSFVEKATEVMRQEDAEDLQKKIMSAKFDFNDFLKQTRAVAKMGSMTRVLGMIPGMGKVSPAQIREAEKNLLVMEAMIEVMTPEERERPELLAESPERRKRIAKDSGKTEQQVSALVAQIFQMRVKMKNLMGVMEGGSIPALSGLEDALKAEQKAPPGTARRKRKADSRKKFVESASSKPGPRGFGSGN
Consider B4, for which, in experiment [2], the binding entry was “binds”.

B5: LPA1-YFP^C (protein, UniProt Q9SRY4 93-453)
chain: DALVQFETALSLAPNPIESQAAYYNKACCHAYRGEGKKAVDCLRIALRDYNLKFATILNDPDLASFRALPEFKELQEEARLGGEDIGDNFRRDLKLISEVRAPFRGVRKFFYFAFAAAAGISMFFTVPRLVQAIRGGDGAPNLLETTGNAAINIGGIVVMVSLFLWENKKEEEQMVQITRDETLSRLPLRLSTNRVVELVQLRDTVRPVILAGKKETVTLAMQKADRFRTELLRRGVLLVPVVWGERKTPEIEKKGFGASSKAATSLPSIGEDFDTRAQSVVAQSKLKGEIRFKAETVSPGEWERWIRDQQISEGVNPGDDVYIILRLDGRVRRSGRGMPDWAEISKELPPMDDVLSKLER
For the molecule B5, in experiment [2], the binding entry is reported as “binds”.

The values are drawn from article PMC11006888.
